Assay results from patent publication US20220125947A1.
Changes are numbered by the printed parent chain.

B1: VG9B466 (antibody, human IgG1, lambda)
heavy: QVQLVQSGPGLVKPSETLSLTCTVSGGSISNYYWSWIRQPAGKGLGWIGRIYSSGITNYNPSLKSRVTMSVDTSKNQLSLKLSSVTAADTAVYYCAGIVGVKGAFAIWGQGTMVTVSS[human IgG1 constant region omitted here]
light: SYELTQPASVSGSPGQSITISCTGTSSDVGGYNYVSWYQQHPGKAPKLMIYEVSNRPSGVSNRFSGSKSGNTASLTISGLQAEDEADYYCSSYTSTSVVFGGGTKLTVLGQPKAAPSVTLFPPSSEELQANKATLVCLISDFYPGAVTVAWKADSSPVKAGVETTTPSKQSNNKYAASSYLSLTPEQWKSHRSYSCQVTHEGSTVEKTVAPTECS
B2: VG9B450 (antibody, human IgG1, lambda)
heavy: B1 heavy with Q1E, V5Q, Q6E
light: B1 light with S1Q, Y2S, E3V
B3: VG9B438 (antibody, human IgG1, lambda)
heavy: B1 heavy with Q1E, Q6E
light: B1 light
B4: VG9B464 (antibody, human IgG1, lambda)
heavy: B1 heavy with Q1E, M113T
light: B1 light with S1Q, Y2S, E3A
B5: VG9B437 (antibody, human IgG1, lambda)
heavy: B1 heavy with Q1E, V5Q, Q6E
light: B1 light with S1Q, Y2S, E3A
B6: VG9B457 (antibody, human IgG1, lambda)
heavy: B1 heavy with Q1E, Q6E
light: B1 light with S1Q, Y2A, E3V
B7: VG9B442 (antibody, human IgG1, lambda)
heavy: B1 heavy with Q6E
light: B1 light with S1Q, Y2S, E3A, L106V
B8: VG9B436 (antibody, human IgG1, lambda)
heavy: B1 heavy with Q1E, Q6E
light: B1 light with S1Q, Y2S, E3V
B9: VG9B434 (antibody, human IgG1, lambda)
heavy: B1 heavy with V5Q, Q6E
light: B1 light with S1Q, Y2S, E3V
B10: VG9B460 (antibody, human IgG1, lambda)
heavy: B1 heavy with Q1E, Q6E
light: B1 light with S1Q, Y2L, E3V
B11: VG9B189 (antibody, human IgG1, lambda)
heavy: EVQLVQSGGGLVKPGASLKLSCAASGFTFSNHGMSWVRQTSDKRLEWVASITRGGDTTYYPDNVKGRFTISRENAKNTLYLQMSSLKSDDTALYYCTRGPLTVGYAMDYWGQGTTVTVSS[human IgG1 constant region omitted here]
light: QSVVTQPPSASGSPGQSVTISCTGTSSDVGGYNYVSWYQQHPGKAPKLMIYEVSKRPSGVPDRFSGSKSGNTASLTVSGLQAEDEADYYCNSYAGSNNFEVFGGGTKVTVLGQPKAAPSVTLFPPSSEELQANKATLVCLISDFYPGAVTVAWKADSSPVKAGVETTTPSKQSNNKYAASSYLSLTPEQWKSHRSYSCQVTHEGSTVEKTVAPTECS
B12: VG9B53 (antibody, human IgG1, kappa)
heavy: QVQLQESGPGLVKPSETLSLTCTVSGGSISSYYWSWIRQPAGKGLEWIGRIHTIGSINYNPSLKSRVTMSVDTSKNQFSLKLSSVTAADTAVYYCAMEGVGATNYYYGMAVWGRGTMVTVSS[human IgG1 constant region omitted here]
light: [about 120 residues omitted here][about 100 residues omitted here]
B13: VG9B41 (antibody, human IgG1, kappa)
heavy: QVQLQESGPQLVRPGASVKISCKASGYSFTTYWMHWVKQRPGQGLEWIGLIDPSDSETRLNQKFKDKATLTVDKSSSTAYMRLSSPTSEDSAVYYCASNRWLLGWGQGTMVTVSS[human IgG1 constant region omitted here]
light: EIVLTQTPLSSPVTLGQPASISCRSSQSLVHSDGNTYLSWLHQRPGQPPRLLIYKISNRFSGVPDRFSGSGAGTDFTLKISRVETEDVGVYYCVQTREFPLTFGGGTKVEIKRTVAAPSVFIFPPSDEQLKSGTASVVCLLNNFYPREAKVQWKVDNALQSGNSQESVTEQDSKDSTYSLSSTLTLSKADYEKHKVYACEVTHQGLSSPVTKSFNRGEC

Molecular target: T cell receptor Vδ2 (TRDV2) on T cells in PBMCs (human), A0JD36
Sequence (A0JD36 20-115, stated change not applied): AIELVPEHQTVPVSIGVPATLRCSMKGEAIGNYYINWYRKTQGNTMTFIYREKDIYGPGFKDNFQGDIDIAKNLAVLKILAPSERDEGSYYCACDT
Assay: cell-based or functional assay

| Binder | CD25+ (Vg9+ cells), flow staining | CD71+ (Vg9+ cells), flow staining | Granzyme B, Luninex (supernatant) | IFNγ, Luninex (supernatant) | IL6, Luninex (supernatant) | TNFα, Luninex (supernatant) | Vg9 T cell %, flow staining |
| --- | --- | --- | --- | --- | --- | --- | --- |
| B1 | 21.7% | 84.6% | 2380 | 1190 | 558 | 5870 | 2.6% |
| B2 | 26.1% | 83.9% | 1380 | 560 | 293 | 1510 | 3.5% |
| B3 | 28.2% | 86.4% | 2360 | 653 | 387 | 1420 | 4.2% |
| B4 | 26.6% | 86.2% | 2490 | 1580 | 392 | 5480 | 3.3% |
| B5 | 20.4% | 85.4% | 1490 | 666 | 899 | 311 | 3.7% |
| B6 | 24% | 83.2% | 1840 | 778 | 1070 | 1200 | 3.4% |
| B7 | 18.4% | 82% | 1310 | 322 | 542 | 617 | 3.9% |
| B8 | 21.5% | 87% | 1080 | 230 | 149 | 271 | 3.9% |
| B9 | 20.5% | 85.3% | 4800 | 900 | 985 | 478 | 4.2% |
| B10 | 18.5% | 88% | 1250 | 410 | 528 | 333 | 3.2% |
| B11 | 11.6% | 80% | 230 | 44 | 30 | 64 | 3.5% |

Molecular target: TCR Vδ2 (TRDV2) (human), A0JD36
Sequence (A0JD36 20-115, stated change not applied): as above
Assay: cell-based or functional assay

| Binder | CD25+ (Vg9+ cells), flow staining | CD71+ (Vg9+ cells), flow staining | Granzyme B, Luninex (supernatant) | IFNγ, Luninex (supernatant) | IL6, Luninex (supernatant) | TNFα, Luninex (supernatant) | Vg9 T cell %, flow staining |
| --- | --- | --- | --- | --- | --- | --- | --- |
| B12 | 10.8% | 81.4% | 125 | 44 | 17 | 9 | 3.7% |
| B13 | 16.9% | 79.5% | 274 | 29 | 95 | 213 | 4.8% |
